About 150 (0.041%) of roughly 370,000 compounds were called active. The inconclusive results got no clear call from the source; some entries with a clear call stand among them for comparison. Calls follow the shape of the dose curve; as a rule, active = well fitted inhibition curve with a large enough effect; inconclusive = small, poorly fitted or top-dose-only effect; inactive = flat fitted curve, though single readings scatter. Potencies of inconclusive entries are left out as doubtful fits.
target: Beta-lactamase (Escherichia coli (strain K12)) (UniProt P00811); assay: qHTS Inhibitors of AmpC Beta-Lactamase (assay with detergent); conditions: AmpC hydrolysis of nitrocefin, absorbance 480 nm, 0.01% Triton; activity change, negative = inhibition: at 114 µM (top of the series); also: nearly all actives have a fitted effect of over 25% in size;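 as to activity change, negative = inhibition: 0% = no-compound wells and -100% = no-enzyme wells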
Summary of the method: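 AmpC (5.3 nM in the dispensed reagent) in 20 mM phosphate pH 7.0 with 0.01% (detergent screen) or 0.0001% Triton X-100 was preincubated with compounds for 15 min at room temperature. Nitrocefin was then added from an 800 uM solution, and hydrolysis was followed at 480 nm.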
Potency is read from the fitted curve at half-maximal effect; tags tell the direction and shape of the fitted curve.

UniProt P00811, sequence (P00811 whole entry, looked up): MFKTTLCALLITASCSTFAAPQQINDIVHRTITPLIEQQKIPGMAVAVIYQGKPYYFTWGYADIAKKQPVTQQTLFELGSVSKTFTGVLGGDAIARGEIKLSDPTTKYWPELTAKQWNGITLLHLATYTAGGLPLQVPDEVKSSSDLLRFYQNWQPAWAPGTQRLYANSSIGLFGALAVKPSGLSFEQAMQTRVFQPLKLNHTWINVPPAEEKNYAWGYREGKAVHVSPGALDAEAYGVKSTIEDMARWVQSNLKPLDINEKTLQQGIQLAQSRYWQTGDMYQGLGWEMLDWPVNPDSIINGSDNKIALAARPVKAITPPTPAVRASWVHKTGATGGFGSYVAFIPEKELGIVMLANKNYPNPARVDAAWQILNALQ

For CNC(=O)C(C)N1c2cccc3cccc(c23)S1(=O)=O (stereo not drawn), which Potency is on record?
The Potency was inconclusive [inhibitor, full curve, poor fit].

For CCN(CC)CCN(C(=O)c1ccc(C(=O)c2ccccc2)cc1)c1nc2cc3c(cc2s1)OCO3, which Potency is on record?
Its Potency is “inactive”.

With NS(=O)(=O)c1ccc(NC(=O)c2ccc3c(c2)OCO3)cc1 as the compound, how does the Potency read?
Its Potency is “inactive”.

CCOC(=O)C1=NN(c2ccccc2)C(=O)/C1=C\c1ccc(N(C)C)cc1 was tested. Which Potency did it give?
The Potency was “inactive”.

With CCCCNC(=O)NC1(C(F)(F)F)Oc2ccccc2O1 as the compound, how does the Potency read?
The Potency was inconclusive [inhibitor, single point].

How did the Potency turn out when COCCN1C(=O)c2ccccc2C(C(=O)Nc2ccc3c(c2)OCCO3)C1c1ccc(F)cc1 (stereo not drawn) was run?
Its Potency is inconclusive [inhibitor, partial curve].

For CC(C)N(C(=O)Cn1c(-c2ccccc2Cl)nc2ccccc21)c1ccccc1, which Potency is on record?
Its Potency is inconclusive [inhibitor, full curve, poor fit].

O=C(CN(CC1CCCO1)C(=O)CCC(=O)Nc1nccs1)NCc1ccccc1 (stereo not drawn) was tested. Which Potency did it give?
Its Potency is inconclusive [inhibitor, single point].

Which Potency does the source give for O=C(Nc1ccncc1)c1cc(S(=O)(=O)N2CCN(c3ccccc3)CC2)ccc1Cl here?
Its Potency is inconclusive [inhibitor, full curve, poor fit].

How did the Potency turn out when Cc1ccc(NC(=O)COC(=O)Cc2cccs2)cc1S(=O)(=O)N1CCOCC1 was run?
Its Potency is “inactive”.

CCc1ccc(Nc2nnc(SCC(=O)N(C)CC(=O)Nc3ccccc3CC)s2)cc1 was tested. Which Potency did it give?
Its Potency is inconclusive [inhibitor, full curve].

c1nc(N2CCC3(CC2)OCCO3)c2c3c(sc2n1)CCCC3 was tested. Which Potency did it give?
The Potency was inconclusive [inhibitor, partial curve].

CCOC(=O)CSc1c(-c2cccs2)[nH]c2ccccc12 was tested. Which Potency did it give?
The Potency was inconclusive [inhibitor, partial curve, poor fit].

For CCCCCCCNC1=CC(=O)CC(c2ccccc2)C1 (stereo not drawn), which Potency is on record?
The Potency was “inactive”.

For Brc1ccc2[nH]c3nc(SCCN4CCOCC4)nnc3c2c1, which Potency is on record?
The Potency was “inactive”.

How did the Potency turn out when C=CCn1c(SCC(=O)NCc2ccccc2)nnc1C1CCCCC1 was run?
The Potency was inconclusive [inhibitor, full curve, poor fit].

Which Potency does the source give for Cc1[nH]nc2ncc(C(=O)c3ccccc3O)cc12 here?
Its Potency is inconclusive [inhibitor, partial curve, poor fit].

CC(NC(=O)Cn1cc2c(n1)CCCCC2)c1ccccc1 (stereo not drawn) was tested. Which Potency did it give?
Its Potency is inconclusive [inhibitor, full curve].

For Cc1cc2c3nonc3ccc2n1-c1ccccc1, which Potency is on record?
Its Potency is inconclusive [inhibitor, full curve].

How did the Potency turn out when O=C(COC(=O)/C=C/c1ccccc1)NNC(=O)c1ccccc1F was run?
Its Potency is inconclusive [inhibitor, full curve, poor fit].

With CC(C)C[C@H](NC(=O)c1nc[nH]c1C(=O)NCc1ccc(CNC(=O)OC(C)(C)C)cc1)C(=O)OC(C)(C)C as the compound, how does the Potency read?
The Potency was inconclusive [inhibitor, partial curve, poor fit].

With Cc1oc2cc3c(C(=O)N4CCCCC4)c(C)oc3cc2c1C(=O)N1CCCCC1 as the compound, how does the Potency read?
Its Potency is inconclusive [inhibitor, full curve, poor fit].

How did the Potency turn out when COC(=O)[C@@]1(Cc2ccc(OC)cc2)[C@@H]2[C@@H](CC(=O)[C@H]2CC(=O)C(=O)N(C)C)CN1C(=O)c1ccccc1 was run?
The Potency was inconclusive [inhibitor, full curve].

With COc1ccccc1N1CCN(CC(O)COc2ccc3c(C)cc(=O)oc3c2)CC1 (stereo not drawn) as the compound, how does the Potency read?
The Potency was inconclusive [inhibitor, single point].

How did the Potency turn out when Cc1cc([N+](=O)[O-])cnc1N1CCOCC1 was run?
Its Potency is inconclusive [inhibitor, full curve, poor fit].

With Cc1ccc(S(=O)(=O)N2CCCCC2)cc1C(=O)NCCN1CCOCC1 as the compound, how does the Potency read?
The Potency was inconclusive [inhibitor, full curve, poor fit].

For CC(c1ccccc1)n1c(Br)nc2c1c(=O)[nH]c(=O)n2C (stereo not drawn), which Potency is on record?
The Potency was inconclusive [inhibitor, full curve, poor fit].

Which Potency does the source give for Cc1cccc(Cn2c(=O)n(Cc3ccc(C(=O)NC4CCN(Cc5ccccc5)CC4)cc3)c(=O)c3ccccc32)c1 here?
Its Potency is “inactive”.

Which Potency does the source give for Cc1ccc(NC(=O)CSc2n[nH]c(C)c2[N+](=O)[O-])cc1C here?
Its Potency is inconclusive [inhibitor, partial curve, poor fit].

How did the Potency turn out when CC(C)/C=C/C(=O)N1CCCC(N2CCN(c3ccccc3F)CC2)C1 (stereo not drawn) was run?
Its Potency is inconclusive [inhibitor, full curve, poor fit].

For CCN(CC1COc2ccccc2O1)C(=O)c1ccc(Cl)c(S(=O)(=O)N2CC(C)OC(C)C2)c1 (stereo not drawn), which Potency is on record?
Its Potency is inconclusive [inhibitor, partial curve, poor fit].

Fc1ccc(OCc2nn3c(Cn4nnc5ccccc54)nnc3s2)cc1 was tested. Which Potency did it give?
Its Potency is inconclusive [inhibitor, full curve, poor fit].

For CCC(Sc1nc(-c2ccccc2)cc(=O)[nH]1)C(=O)O (stereo not drawn), which Potency is on record?
The Potency was inconclusive [inhibitor, single point].

Cc1ccc(C2=NN(C(=O)CNCCO)C(c3cccs3)C2)cc1 (stereo not drawn) was tested. Which Potency did it give?
The Potency was “inactive”.

With O=C(NCC(c1ccco1)N1CCN(c2ccccc2)CC1)c1cccs1 (stereo not drawn) as the compound, how does the Potency read?
Its Potency is inconclusive [inhibitor, full curve, poor fit].

Which Potency does the source give for CCOc1ccc(CC(=O)Nc2c(C(=O)Nc3ccccc3)oc3ccccc23)cc1OCC here?
The Potency was inconclusive [inhibitor, full curve, poor fit].

COc1ccc(CCNC(=O)CSc2nnc(-c3ccc(F)cc3)o2)cc1OC was tested. Which Potency did it give?
The Potency was inconclusive [inhibitor, single point].

O=C(NCc1ccc(F)cc1)c1cnc2n(c1=O)CCS2 was tested. Which Potency did it give?
Its Potency is inconclusive [inhibitor, full curve].

For O=C(NCCCN1CCOCC1)c1ccc2c(c1)N(Cc1ccc(Cl)cc1)C(=O)c1ccccc1S2=O (stereo not drawn), which Potency is on record?
Its Potency is inconclusive [inhibitor, partial curve, poor fit].

For CCCCCN(C(=O)CCC(=O)OCc1cccc(Cl)c1)c1c(N)n(CCCC)c(=O)[nH]c1=O, which Potency is on record?
Its Potency is inconclusive [inhibitor, full curve, poor fit].

Cc1cccc(CSc2nc3c(sc4ccccc43)c(=O)n2CCC(=O)NC(C)C)c1 was tested. Which Potency did it give?
Its Potency is “inactive”.

How did the Potency turn out when CCC1=C(C)C(N2CCOCC2)=NP(N2CCOCC2)(N2CCOCC2)=N1 was run?
The Potency was inconclusive [inhibitor, single point].

With OCCCN1CCN(CCOc2ccccc2-c2ccccc2)CC1 as the compound, how does the activity change, negative = inhibition read?
Its activity change, negative = inhibition is inconclusive: -15.2% [inhibitor].

How did the Potency turn out when CNC(=O)C1=C(C)Nc2nc3ccccc3n2C1c1cccc(OC)c1 (stereo not drawn) was run?
The Potency was inconclusive [inhibitor, full curve, poor fit].

For COc1nc(NCc2ccco2)nc(N2CCC(C)CC2)n1, which Potency is on record?
Its Potency is inconclusive [inhibitor, partial curve].

CN(C)CCSc1nc(N)c2c3c(sc2n1)CN(C)CC3 was tested. Which Potency did it give?
Its Potency is inconclusive [inhibitor, single point].

How did the Potency turn out when CCc1ccccc1NC(=O)[C@@H]1CCC(=O)N1C1OC(=O)c2c1ccc(OC)c2OC (stereo partly drawn) was run?
The Potency was inconclusive [inhibitor, single point].

Which Potency does the source give for O=C(O)/C=C\C(=O)Nc1ccccc1C#Cc1ccc(Br)cc1 here?
Its Potency is “inactive”.

COc1ccc(OC)c(NC(=O)CS(=O)(=O)c2ccccc2)c1 was tested. Which Potency did it give?
The Potency was inconclusive [inhibitor, single point].

How did the Potency turn out when NNc1nc2c(Cl)c(Cl)ccc2s1 was run?
Its Potency is inconclusive [inhibitor, partial curve, poor fit].

With COc1ccc(C(=O)/C=C2/c3ccccc3CC(C)(C)N2C)cc1OC as the compound, how does the Potency read?
Its Potency is inconclusive [inhibitor, full curve, poor fit].

How did the Potency turn out when Cc1ccc2cc(C)c3nnc(SCC(=O)c4cccs4)n3c2c1C was run?
The Potency was inconclusive [inhibitor, full curve].

COc1ccc(C(=O)NCCc2ccccc2)cc1OC was tested. Which Potency did it give?
The Potency was inconclusive [inhibitor, full curve, poor fit].

CC(=O)/C(=N\Nc1ccc(Cl)cc1Cl)Sc1nnc(-c2ccccc2)n1-c1ccccc1 was tested. Which Potency did it give?
Its Potency is inconclusive [inhibitor, full curve, poor fit].

Which Potency does the source give for COc1ccc(NC(=O)c2nc(S(C)(=O)=O)ncc2N(Cc2ccc(C)cc2)Cc2ccco2)cc1Cl here?
Its Potency is “inactive”.

With COc1ccc(Cl)cc1NC(=O)c1cc(-c2ccc3c(c2)OCO3)on1 as the compound, how does the Potency read?
The Potency was “inactive”.

For CCC(NC(=O)c1ccccc1NC(=O)c1ccc(OC)cc1)C(=O)N1CCCC1 (stereo not drawn), which Potency is on record?
The Potency was inconclusive [inhibitor, partial curve, poor fit].

For CCc1ccc(C2(O)CC(C(F)(F)F)=NN2C(=O)Cc2ccc([N+](=O)[O-])cc2)cc1 (stereo not drawn), which Potency is on record?
Its Potency is inconclusive [inhibitor, single point].

How did the Potency turn out when CCN(CC)S(=O)(=O)c1ccc(NN)nc1 was run?
The Potency was “inactive”.

For COc1ccc(-n2cc(-c3ccccc3)c3c(N4CCN(CCO)CC4)ncnc32)cc1, which Potency is on record?
Its Potency is inconclusive [inhibitor, single point].

Which Potency does the source give for COc1ccc(S(=O)(=O)N2CCN(C(=O)c3c(C)nn(-c4ccccc4)c3Cl)CC2)cc1 here?
Its Potency is “inactive”.

For Cc1ccccc1OCC(=O)OCC(=O)NC1CCCCCC1, which Potency is on record?
The Potency was inconclusive [inhibitor, single point].

With COc1ccc(-c2cc(C(F)(F)F)nc(N3CCOCC3)n2)cc1 as the compound, how does the Potency read?
The Potency was inconclusive [inhibitor, full curve, poor fit].

— PubChem BioAssay AID485294 (National Center for Advancing Translational Sciences (NCATS), 2010)
